This is an account of results in patent publication US11178870B2 (priority 2017, dated 2021).

One assay relates to Magnaporthe grisea. It is filed as in vivo. As to conditions: Table 7, Test A.
The test system of a further assay is Phytophthora infestans. It is filed as in vivo. The following applies: Table 7, Test F.
Assay [1] has as its system Colletotrichum orbiculare. As to conditions: 250 ppm sprayed (2.5 ml/pot) before inoculation; assessed 6 to 10 days after inoculation.

On to `CCn1c(-c2c(F)cc(OC)cc2F)c(-n2cc(F)cn2)cc(Br)c1=O` [Compound 315], for which the “control value, Test A (blast on rice)” value with Magnaporthe grisea is reported as “H (H shows the control value more than 50%)”. In addition, the “control value, Test F (late blight on tomato)” value (from here on “control value, Test F”) in the assay on Phytophthora infestans was “L (L shows the control value of 50% or less)”. In addition, the “control value, Test H (anthracnose on cucumber)” value (shortened to “control value, Test H”) in assay [1] was “H (H shows the control value more than 50%)”.

As for `CCn1c(-c2ccc(F)cc2Cl)c(-n2cc(F)cn2)cc(Cl)c1=O` [Compound 328], in the assay on Magnaporthe grisea, the “control value, Test A (blast on rice)” value is given as “H (H shows the control value more than 50%)”. In addition, the “control value, Test F” value in the assay with Phytophthora infestans was “L (L shows the control value of 50% or less)”. The “control value, Test H” value in assay [1] is recorded as “H (H shows the control value more than 50%)”.

As to `CCn1c(-c2c(F)cccc2Cl)c(-n2cc(Cl)cn2)cc(Br)c1=O` [Compound 199], the “control value, Test A (blast on rice)” value with Magnaporthe grisea is on record as “L (L shows the control value of 50% or less)”. Besides, in the assay with Phytophthora infestans, the “control value, Test F” value is “L (L shows the control value of 50% or less)”. Also, the “control value, Test H” value in assay [1] is on record as “L (L shows the control value of 50% or less)”.

As to `O=c1ccc(-n2cc(Cl)cn2)c(-c2ccc(F)cc2F)n1CC(F)F` [Compound 211], the “control value, Test A (blast on rice)” value in the assay on Magnaporthe grisea is given as “H (H shows the control value more than 50%)”. The “control value, Test F” value in the assay with Phytophthora infestans is “L (L shows the control value of 50% or less)”. In addition, in assay [1], the “control value, Test H” value is on record as “L (L shows the control value of 50% or less)”.

As to `CCn1c(-c2ccc(OC)cc2F)c(-n2cc(F)cn2)ccc1=O` [Compound 300], the “control value, Test A (blast on rice)” value in the assay on Magnaporthe grisea is given as “H (H shows the control value more than 50%)”. For the same molecule, the “control value, Test F” value in the assay with Phytophthora infestans was “L (L shows the control value of 50% or less)”. The “control value, Test H” value in assay [1] is “H (H shows the control value more than 50%)”.

On to `CCn1c(-c2ccccc2Br)c(-n2ncc(C)c2Cl)cc(Cl)c1=O` [Compound 272], for which the “control value, Test A (blast on rice)” value in the assay on Magnaporthe grisea is listed as “H (H shows the control value more than 50%)”. Also, the “control value, Test F” value with Phytophthora infestans was “L (L shows the control value of 50% or less)”. Further, the “control value, Test H” value in assay [1] is given as “H (H shows the control value more than 50%)”.

Take `Cc1cnn(-c2cc(Cl)c(=O)n(CC(F)F)c2-c2ccccc2F)c1Cl` [Compound 310]: the “control value, Test A (blast on rice)” value with Magnaporthe grisea is reported as “H (H shows the control value more than 50%)”. Moreover, in the assay on Phytophthora infestans, the “control value, Test F” value was “L (L shows the control value of 50% or less)”. The “control value, Test H” value in assay [1] is on record as “H (H shows the control value more than 50%)”.

In the case of `CCn1c(-c2ccc(F)cc2Br)c(-n2cc(C)cn2)ccc1=O` [Compound 330], in the assay on Magnaporthe grisea, the “control value, Test A (blast on rice)” value was “H (H shows the control value more than 50%)”. Moreover, the “control value, Test F” value in the assay on Phytophthora infestans was “L (L shows the control value of 50% or less)”. In addition, in assay [1], the “control value, Test H” value was “H (H shows the control value more than 50%)”.

For the molecule `CCn1c(-c2c(F)cccc2F)c(-n2cc(F)cn2)ccc1=O` [Compound 318], in the assay with Magnaporthe grisea, the “control value, Test A (blast on rice)” value is “L (L shows the control value of 50% or less)”. In addition, the “control value, Test F” value with Phytophthora infestans was “H (H shows the control value more than 50%)”. Moreover, the “control value, Test H” value in assay [1] was “H (H shows the control value more than 50%)”.

For `Cc1cnn(-c2cc(Cl)c(=O)n(CC(F)F)c2-c2ccccc2Cl)c1Cl` [Compound 229], the “control value, Test A (blast on rice)” value in the assay with Magnaporthe grisea was “H (H shows the control value more than 50%)”. Moreover, the “control value, Test F” value in the assay with Phytophthora infestans is “L (L shows the control value of 50% or less)”. In assay [1], the “control value, Test H” value is reported as “H (H shows the control value more than 50%)”.
